Experimental data as given in PubChem BioAssay AID504832 (National Center for Advancing Translational Sciences (NCATS), 2011).
Out of some 310,000 compounds screened, about 18,000 (5.8%) were called active. Inconclusive means that the source gave no clear call. Such entries were picked first, then a sample of the others. The call rests on the fitted dose curve; in most records, active means well fitted inhibition curve with a large enough effect; inconclusive means small, poorly fitted or top-dose-only effect, or another doubt; inactive means no such curve, though single readings can be large or run the other way. Potencies of inconclusive entries are left out as doubtful fits.

assay: Primary qHTS for delayed death inhibitors of the malarial parasite plastid, 48 hour incubation; conditions: P. falciparum luciferase growth in erythrocytes; series mostly up to 28.7 µM; activity change, negative = inhibition: at the top concentration
In short: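 Erythrocytes infected with P. falciparum carrying an integrated firefly luciferase reporter (2% hematocrit, 0.1% parasitemia final) were exposed to compounds in RPMI 1640 with 0.5% Albumax at 37 C, 5% CO2. Growth inhibition was scored as reduced luminescence.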
On the % scale 0 is the no-effect control and ±100 the full control effect; potency means the concentration at half of the fitted maximal effect; tags describe the fitted curve by direction and shape.

Row | SMILES | activity change, negative = inhibition | Potency
1 | O=C(Cn1c(=S)[nH]c2ccccc2c1=O)NCCc1ccccc1 | inactive: 10.8% | 
2 | CC1(C)O[C@H]2C[C@@H]3[C@H]4CCC5=CC(=O)C=C[C@]5(C)[C@@]4(F)[C@@H](O)C[C@]3(C)[C@]2(C(=O)CO)O1 |  | inconclusive [inhibitor, single point]
3 | O=C(Nc1ccccc1N1CCN(C(=O)c2ccccc2)CC1)c1cccc(Cl)c1 |  | inconclusive [inhibitor, single point]
4 | O=C(c1ccccc1Cc1ccccc1)N1CCN(S(=O)(=O)c2ccc(F)cc2)CC1 |  | inconclusive [inhibitor, partial curve]
5 | On1nnc2cc(C(F)(F)F)ccc21 | inactive: 3.87% | 
6 | Clc1ccc(-c2nc(C3CCCCC3)no2)cc1 | inactive: 117% | 
7 | CNS(=O)(=O)c1ccc(NC(=S)Nc2ccc3c(c2)OCO3)cc1 | inactive: 20.7% | 
8 | O=C(CSc1nc2c(c(=O)n1-c1ccc(Cl)cc1)SCC2)NCC1CCCO1 (centres undefined) |  | inconclusive [inhibitor, single point]
9 | CCn1cc(C(=O)NCc2ccc3c(c2)OCO3)c(=O)c2cc(F)c(N3CCN(C)CC3)cc21 |  | inconclusive [inhibitor, single point]
10 | O=[N+]([O-])c1ccc2c(c1)/C(=N\O)c1ccccc1-2 | inactive: 4.8% | 
11 | COc1ccc(C(=O)NC(=S)Nc2ccccc2N2CCOCC2)cc1Br |  | inconclusive [inhibitor, single point]
12 | COc1cc(C)nc(N(Cc2ccccc2)S(=O)(=O)c2ccc(C)cc2)n1 |  | inconclusive [inhibitor, single point]
13 | CCN(CC)S(=O)(=O)c1ccc(C(=O)Nc2cc(C)cc(C)c2)cc1 |  | inconclusive [inhibitor, single point]
14 | C=CCOc1ccccc1/C=N/n1nnnc1N | inactive: 8.18% | 
15 | Cc1cc(Cl)ccc1C(=O)C1CCCN(C(=O)c2cncs2)C1 (centres undefined) | inactive: 1.3% | 
16 | CCOC(=O)[C@@H]1[C@H]2COc3ccc(Br)cc3[C@@H]2N2C(=O)N(c3ccccc3)C(=O)[C@]12C |  | inconclusive [inhibitor, full curve, poor fit]
17 | COc1ccc(CNC(=O)CCc2nnc3ccc(N4CCC5(CC4)OCCO5)nn23)cc1 |  | inconclusive [inhibitor, single point]

Row | SMILES | activity change, negative = inhibition | Potency
18 | O=C(Nc1nc2ccc(F)cc2s1)c1ccc(N2CCCC2=O)cc1 | inactive: 58.3% | 
19 | Cc1ccc(C)c(S(=O)(=O)N2CCN(CC(=O)NC(=O)NCc3ccccc3)CC2)c1 |  | inconclusive [inhibitor, single point]
20 | COC(=O)c1ccc2c(=O)n(CC3CCCO3)c(SCC(=O)Nc3ccc(OC)cc3OC)nc2c1 (centres undefined) |  | active: 6.57 µM
21 | Cc1ccc(S(=O)(=O)Nc2cc(C)nn2-c2ccccc2)cc1 |  | inconclusive [inhibitor, partial curve, poor fit]
22 | O=C(CN(c1ccccn1)S(=O)(=O)c1ccc(F)cc1)Nc1ccc(F)cc1F | inactive: -2.16% | 
23 | Cc1cc(C)nc(N2CCC(C(=O)O)CC2)n1 | inactive: 1.91% | 
24 | CCN(CC)S(=O)(=O)c1ccc(N2CCCCC2)c(NC(=O)/C(C#N)=C/c2ccc(OC)cc2)c1 |  | inconclusive [inhibitor, full curve]
25 | CCc1cccc(NS(=O)(=O)c2c(C)nc3scc(C)n3c2=O)c1 |  | inconclusive [inhibitor, partial curve, poor fit]
26 | Cc1ccc(Cn2cc(S(=O)(=O)c3ccc(Cl)cc3)c(=O)c3cc(F)ccc32)cc1 |  | inconclusive [inhibitor, single point]
27 | CN(C)S(=O)(=O)N(Cc1ccc(Br)cc1)c1ccccc1 |  | inconclusive [inhibitor, partial curve, poor fit]
28 | COc1cccc(NC(=O)Nc2nccc(C)n2)c1 | inactive: 81.7% | 
29 | O=C1CC(N2CC=C(c3ccccc3)CC2)C(=O)N1c1ccc(F)cc1 (centres undefined) |  | inconclusive [inhibitor, partial curve]
30 | Cn1c(=O)c2c(nc(NCc3cccnc3)n2Cc2cccc(C(F)(F)F)c2)n(C)c1=O |  | inconclusive [inhibitor, partial curve]
31 | CC(=O)Nc1nnc(CSCc2ccc(F)cc2)s1 | inactive: 22.3% | 
32 | Cc1ccc2nc(N3CCN(C)CC3)c(C#N)cc2c1 | inactive: -16.4% | 
33 | COc1cccc(NC(=O)COC(=O)CNS(=O)(=O)c2c(F)cccc2F)c1 | inactive: 5.94% | 
34 | CCC(CC)CN1C(N(C)C)=NC[C@@H]1CC(C)C |  | inconclusive [inhibitor, single point]
